# In paper PMC2703648:
# No constants are given. Whether binding was seen depends on the method and setting. Binding seen in cells or lysates may run through a third protein. Some binding calls cover weakened binding; strength is not graded here. For some assays here: Sequences can lack the tags named with a protein.
# T1: GST-Amphiphysin2 SH3 (UniProt O00499)
# T1 sequence: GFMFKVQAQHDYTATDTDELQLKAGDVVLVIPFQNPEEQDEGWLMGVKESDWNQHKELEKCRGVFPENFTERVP
# What was measured:
# [1] = molecular target: GST-IgFn (IgFn region of rat Kalirin12 fused to GST) (rat) (UniProt P97924); assay: pull-down; 2 μg GST or GST-IgFn on beads tumbled 2 h, 4C with lysates of transfected pEAK Rapid cells (20 mM NaTES, 10 mM mannitol, pH 7.4); blot with GFP antibody; in one panel 1 mM GTP or 1 mM GTPγS added to the lysate; only the target purified
# [2] = molecular target: T1, GST-Amphiphysin2 SH3; assay: pull-down; GST-amphiphysin-2/SH3 domain (8 mg) on glutathione Sepharose 4B tumbled 4 h, 4C with adult rat brain supernatant (buffer A, 1% Triton X-100); bound and eluted protein seen by Coomassie staining; only the target purified
# [3] = molecular target: Kalirin (endogenous, precipitated with the Kalirin-spectrin antibody) (rat (endogenous in rat embryonic cortex)) (UniProt P97924); assay: co-IP; rat embryonic cortex cytosol immunoprecipitated with Kalirin-spectrin antibody (blots: pan-dynamin, dynamin1, dynamin2) or with dynamin antibody (blot: Kalirin12)
# [4] = molecular target: GST-IgFn (IgFn region of rat Kalirin12 fused to GST) (rat) (UniProt P97924); assay: pull-down; GST-IgFn beads incubated with adult rat cortical cytosol (2.0 mg protein); eluate blotted with pan-dynamin, dynamin1, dynamin2 and dynamin3 antibodies; only the target purified
binding [1],binding [3],binding [4],Binder,also measured
binds,–,–,"dynamin2/ΔPRD-GFP (domain or fragment, UniProt P50570 1-746) MGNRGMEELIPLVNKLQDAFSSIGQSCHLDLPQIAVVGGQSAGKSSVLENFVGRDFLPRGSGIVTRRPLILQLIFSKTEHAEFLHCKSKKFTDFDEVRQEIEAETDRVTGTNKGISPVPINLRVYSPHVLNLTLIDLPGITKVPVGDQPPDIEYQIKDMILQFISRESSLILAVTPANMDLANSDALKLAKEVDPQGLRTIGVITKLDLMDEGTDARDVLENKLLPLRRGYIGVVNRSQKDIEGKKDIRAALAAERKFFLSHPAYRHMADRMGTPHLQKTLNQQLTNHIRESLPALRSKLQSQLLSLEKEVEEYKNFRPDDPTRKTKALLQMVQQFGVDFEKRIEGSGDQVDTLELSGGARINRIFHERFPFELVKMEFDEKDLRREISYAIKNIHGVRTGLFTPDLAFEAIVKKQVVKLKEPCLKCVDLVIQELINTVRQCTSKLSSYPRLREETERIVTTYIREREGRTKDQILLLIDIEQSYINTNHEDFIGFANAQQRSTQLNKKRAIPNQGEILVIRRGWLTINNISLMKGGSKEYWFVLTAESLSWYKDEEEKEKKYMLPLDNLKIRDVEKGFMSNKHVFAIFNTEQRNVYKDLRQIELACDSQEDVDSWKASFLRAGVYPEKDQAENEDGAQENTFSMDPQLERQVETIRNLVDSYVAIINKSIRDLMPKTIMHLMINNTKAFIHHELLAYLYSSADQSSLMEESADQAQRRDDMLRMYHALKEALNIIGDISTSTVST",–
binds,–,–,"dynamin2/GTPase-GFP fusion protein (domain or fragment, UniProt P50570 1-320) MGNRGMEELIPLVNKLQDAFSSIGQSCHLDLPQIAVVGGQSAGKSSVLENFVGRDFLPRGSGIVTRRPLILQLIFSKTEHAEFLHCKSKKFTDFDEVRQEIEAETDRVTGTNKGISPVPINLRVYSPHVLNLTLIDLPGITKVPVGDQPPDIEYQIKDMILQFISRESSLILAVTPANMDLANSDALKLAKEVDPQGLRTIGVITKLDLMDEGTDARDVLENKLLPLRRGYIGVVNRSQKDIEGKKDIRAALAAERKFFLSHPAYRHMADRMGTPHLQKTLNQQLTNHIRESLPALRSKLQSQLLSLEKEVEEYKNFRPD",–
–,–,–,"dynamin purified from adult rat brain (protein, UniProt P21575 1-864) MGNRGMEDLIPLVNRLQDAFSAIGQNADLDLPQIAVVGGQSAGKSSVLENFVGRDFLPRGSGIVTRRPLVLQLVNSTTEYAEFLHCKGKKFTDFEEVRLEIEAETDRVTGTNKGISPVPINLRVYSPHVLNLTLVDLPGMTKVPVGDQPPDIEFQIRDMLMQFVTKENCLILAVSPANSDLANSDALKIAKEVDPQGQRTIGVITKLDLMDEGTDARDVLENKLLPLRRGYIGVVNRSQKDIDGKKDITAALAAERKFFLSHPSYRHLADRMGTPYLQKVLNQQLTNHIRDTLPGLRNKLQSQLLSIEKEVDEYKNFRPDDPARKTKALLQMVQQFAVDFEKRIEGSGDQIDTYELSGGARINRIFHERFPFELVKMEFDEKELRREISYAIKNIHGIRTGLFTPDLAFEATVKKQVQKLKEPSIKCVDMVVSELTSTIRKCSEKLQQYPRLREEMERIVTTHIREREGRTKEQVMLLIDIELAYMNTNHEDFIGFANAQQRSNQMNKKKTSGNQDEILVIRKGWLTINNIGIMKGGSKEYWFVLTAENLSWYKDDEEKEKKYMLSVDNLKLRDVEKGFMSSKHIFALFNTEQRNVYKDYRQLELACETQEEVDSWKASFLRAGVYPERVGDKEKASETEENGSDSFMHSMDPQLERQVETIRNLVDSYMAIVNKTVRDLMPKTIMHLMINNTKEFIFSELLANLYSCGDQNTLMEESAEQAQRRDEMLRMYHALKEALSIIGDINTTTVSTPMPPPVDDSWLQVQSVPAGRRSPTSSPTPQRRAPAVPPARPGSRGPAPGPPPAGSALGGAPPVPSRPGASPDPFGPPPQVPSRPNRAPPGVPSRSGQASPSRPESPRPPFDL",binding [2]: binds
–,binds,binds,"dynamin1 (rat, endogenous) (protein, UniProt P21575 1-864) MGNRGMEDLIPLVNRLQDAFSAIGQNADLDLPQIAVVGGQSAGKSSVLENFVGRDFLPRGSGIVTRRPLVLQLVNSTTEYAEFLHCKGKKFTDFEEVRLEIEAETDRVTGTNKGISPVPINLRVYSPHVLNLTLVDLPGMTKVPVGDQPPDIEFQIRDMLMQFVTKENCLILAVSPANSDLANSDALKIAKEVDPQGQRTIGVITKLDLMDEGTDARDVLENKLLPLRRGYIGVVNRSQKDIDGKKDITAALAAERKFFLSHPSYRHLADRMGTPYLQKVLNQQLTNHIRDTLPGLRNKLQSQLLSIEKEVDEYKNFRPDDPARKTKALLQMVQQFAVDFEKRIEGSGDQIDTYELSGGARINRIFHERFPFELVKMEFDEKELRREISYAIKNIHGIRTGLFTPDLAFEATVKKQVQKLKEPSIKCVDMVVSELTSTIRKCSEKLQQYPRLREEMERIVTTHIREREGRTKEQVMLLIDIELAYMNTNHEDFIGFANAQQRSNQMNKKKTSGNQDEILVIRKGWLTINNIGIMKGGSKEYWFVLTAENLSWYKDDEEKEKKYMLSVDNLKLRDVEKGFMSSKHIFALFNTEQRNVYKDYRQLELACETQEEVDSWKASFLRAGVYPERVGDKEKASETEENGSDSFMHSMDPQLERQVETIRNLVDSYMAIVNKTVRDLMPKTIMHLMINNTKEFIFSELLANLYSCGDQNTLMEESAEQAQRRDEMLRMYHALKEALSIIGDINTTTVSTPMPPPVDDSWLQVQSVPAGRRSPTSSPTPQRRAPAVPPARPGSRGPAPGPPPAGSALGGAPPVPSRPGASPDPFGPPPQVPSRPNRAPPGVPSRSGQASPSRPESPRPPFDL",–
–,–,no binding,"dynamin3 (rat, endogenous) (protein, UniProt Q08877 1-869) MGNREMEELIPLVNRLQDAFSALGQSCLLELPQIAVVGGQSAGKSSVLENFVGRDFLPRGSGIVTRRPLVLQLVTSKAEYAEFLHCKGKKFTDFDEVRHEIEAETDRVTGMNKGISSVPINLRVYSPHVLNLTLIDLPGITKVPVGDQPPDIEYQIRDMIMQFITRENCLILAVTPANTDLANSDALKLAKEVDPQGLRTIGVITKLDLMDEGTDARDVLENKLLPLRRGYVGVVNRSQKDIDGKKDIKAAMLAERKFFLSHPAYRHIADRMGTPHLQKVLNQQLTNHIRDTLPNFRNKLQGQLLSIEHEVEAFKNFKPEDPTRKTKALLQMVQQFAVDFEKRIEGSGDQVDTLELSGGAKINRIFHERFPFEIVKMEFNEKELRREISYAIKNIHGIRTGLFTPDMAFEAIVKKQIVKLKGPSLKSVDLVMQELINTVKKCTKRLANFPRLCEETERIVANHIREREGKTKDQVLLLIDIQVSYINTNHEDFIGFANAQQRSSQVHKKSTIGNQGTNLPPSRQIVIRKGWLTVSNIGIMKGGSKGYWFVLTAESLSWYKDDEEKEKKYMLPLDNLKVRDVEKGFMSSKHVFALFNTEQRNVYKDYRSLELACDSQEDVDSWKASLLRAGVYPDKSFTENDENGQAENFSMDPQLERQVETIRNLVDSYMSIINKCIRDLIPKTIMHLMINNVKDFINSELLAQLYSSEDQNTLMEESVEQAQRRDEMLRMYQALKEALAIIGDINTVTVSTPAPPPVDDSWLQHSRRSPPPSPTTQRRLTLSAPLPRPASSRGPAPAIPSPGPHSGAPPVPFRPGPLPPFPNSSDSYGAPPQVPSRPTRAPPSVPSRRPPPSPTRPTIIRPLESSLLD",–
–,binds,binds,"dynamin2 (rat, endogenous) (protein, UniProt P39052 1-870) MGNRGMEELIPLVNKLQDAFSSIGQSCHLDLPQIAVVGGQSAGKSSVLENFVGRDFLPRGSGIVTRRPLILQLIFSKTEYAEFLHCKSKKFTDFDEVRQEIEAETDRVTGTNKGISPVPINLRVYSPHVLNLTLIDLPGITKVPVGDQPPDIEYQIKDMILQFISRESSLILAVTPANMDLANSDALKLAKEVDPQGLRTIGVITKLDLMDEGTDARDVLENKLLPLRRGYIGVVNRSQKDIEGRKDIRAALAAERKFFLSHPAYRHMADRMGTPHLQKTLNQQLTNHIRESLPTLRSKLQSQLLSLEKEVEEYKNFRPDDPTRKTKALLQMVQQFGVDFEKRIEGSGDQVDTLELSGGARINRIFHERFPFELVKMEFDEKDLRREISYAIKNIHGVRTGLFTPDLAFEAIVKKQVVKLKEPCLKCVDLVIQELISTVRQCTSKLSSYPRLREETERIVTTYIREREGRTKDQILLLIDIEQSYINTNHEDFIGFANAQQRSTQLNKKRAIPNQGEILVIRRGWLTINNISLMKGGSKEYWFVLTAESLSWYKDEEEKEKKYMLPLDNLKIRDVEKGFMSNKHVFAIFNTEQRNVYKDLRQIELACDSQEDVDSWKASFLRAGVYPEKDQAENEDGAQENTFSMDPQLERQVETIRNLVDSYVAIINKSIRDLMPKTIMHLMINNTKAFIHHELLAYLYSSADQSSLMEESAEQAQRRDDMLRMYHALKEALNIIGDISTSTVSTPVPPPVDDTWLQNTSSHSPTPQRRPVSSVHPPGRPPAVRGPTPGPPLIPMPVGATSSFSAPPIPSRPGPQNVFANNDPFSAPPQIPSRPARIPPGIPPGVPSRRAPAAPSRPTIIRPAEPSLLD",–
